Test results: the supplement of paper PMC8728848
This is one part of the list.

Key:
Test in all cases: glycan array binding signal (z-score within array); higher = stronger binding
Conditions in all cases: glycan notation: IUPAC condensed, linker removed
[1] = target: Gal(b1-4)GalNAc(b1-3)[Fuc(a1-2)]Gal(b1-4)GlcNAc
In short: (§1)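 The binding signal is a Z-score computed within each array and averaged over linkers. Arrays of the same protein sequence at different concentrations or buffers were also averaged together. Data originate from 3228 arrays in the Consortium for Functional Glycomics database, kept only where the protein sequence was available.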

Gal(b1-4)Glc = target: Gal(b1-4)Glc
In short: as §1

Gal(b1-4)Glc6S = target: Gal(b1-4)Glc6S
In short: as §1

Gal(b1-4)GlcNAc = target: Gal(b1-4)GlcNAc
In short: as §1

[2] = target: Gal(b1-4)GlcNAc(a1-6)Gal(b1-4)GlcNAc
In short: as §1

Gal(b1-4)GlcNAc(b1-2)Man = target: Gal(b1-4)GlcNAc(b1-2)Man
In short: as §1

[3] = target: Gal(b1-4)GlcNAc(b1-2)Man(a1-3)Man(b1-4)GlcNAc(b1-4)GlcNAc
In short: as §1

[4] = target: Gal(b1-4)GlcNAc(b1-2)Man(a1-3)[Gal(b1-4)GlcNAc(b1-2)Man(a1-6)]Man(b1-4)GlcNAc(b1-4)GlcNAc
In short: as §1

[5] = target: Gal(b1-4)GlcNAc(b1-2)Man(a1-3)[Gal(b1-4)GlcNAc(b1-2)Man(a1-6)]Man(b1-4)GlcNAc(b1-4)[Fuc(a1-6)]GlcNAc
In short: as §1

[6] = target: Gal(b1-4)GlcNAc(b1-2)Man(a1-3)[Gal(b1-4)GlcNAc(b1-2)Man(a1-6)][Gal(b1-4)GlcNAc(b1-4)]Man(b1-4)GlcNAc(b1-4)[Fuc(a1-6)]GlcNAc
In short: as §1

[7] = target: Gal(b1-4)GlcNAc(b1-2)Man(a1-3)[Gal(b1-4)GlcNAc(b1-2)Man(a1-6)][GlcNAc(b1-4)]Man(b1-4)GlcNAc(b1-4)[Fuc(a1-6)]GlcNAc
In short: as §1

[8] = target: Gal(b1-4)GlcNAc(b1-2)Man(a1-3)[GlcNAc(b1-2)Man(a1-6)]Man(b1-4)GlcNAc(b1-4)GlcNAc
In short: as §1

[9] = target: Gal(b1-4)GlcNAc(b1-2)Man(a1-3)[GlcNAc(b1-4)][Gal(b1-4)GlcNAc(b1-2)Man(a1-6)]Man(b1-4)GlcNAc(b1-4)GlcNAc
In short: as §1

[10] = target: Gal(b1-4)GlcNAc(b1-2)Man(a1-3)[Man(a1-6)]Man(b1-4)GlcNAc(b1-4)GlcNAc
In short: as §1

[11] = target: Gal(b1-4)GlcNAc(b1-2)Man(a1-6)Man(b1-4)GlcNAc(b1-4)GlcNAc
In short: as §1

[12] = target: Gal(b1-4)GlcNAc(b1-2)Man(a1-6)[GlcNAc(b1-2)Man(a1-3)]Man(b1-4)GlcNAc(b1-4)GlcNAc
In short: as §1

[13] = target: Gal(b1-4)GlcNAc(b1-2)Man(a1-6)[Man(a1-3)]Man(b1-4)GlcNAc(b1-4)GlcNAc
In short: as §1

[14] = target: Gal(b1-4)GlcNAc(b1-2)[Gal(b1-4)GlcNAc(b1-4)]Man(a1-3)[Gal(b1-4)GlcNAc(b1-2)Man(a1-6)]Man(b1-4)GlcNAc(b1-4)GlcNAc
In short: as §1

[15] = target: Gal(b1-4)GlcNAc(b1-2)[Gal(b1-4)GlcNAc(b1-4)]Man(a1-3)[Gal(b1-4)GlcNAc(b1-2)[Gal(b1-4)GlcNAc(b1-6)]Man(a1-6)]Man(b1-4)GlcNAc(b1-4)GlcNAc
In short: as §1

[16] = target: Gal(b1-4)GlcNAc(b1-2)[Gal(b1-4)GlcNAc(b1-4)]Man(a1-3)[GlcNAc(b1-4)][Gal(b1-4)GlcNAc(b1-2)Man(a1-6)]Man(b1-4)GlcNAc(b1-4)GlcNAc
In short: as §1

[17] = target: Gal(b1-4)GlcNAc(b1-2)[Gal(b1-4)GlcNAc(b1-4)]Man(a1-3)[GlcNAc(b1-4)][Gal(b1-4)GlcNAc(b1-2)[Gal(b1-4)GlcNAc(b1-6)]Man(a1-6)]Man(b1-4)GlcNAc(b1-4)GlcNAc
In short: as §1

[18] = target: Gal(b1-4)GlcNAc(b1-2)[Gal(b1-4)GlcNAc(b1-6)]Man(a1-6)[Gal(b1-4)GlcNAc(b1-2)Man(a1-3)]Man(b1-4)GlcNAc(b1-4)GlcNAc
In short: as §1

[19] = target: Gal(b1-4)GlcNAc(b1-2)[Gal(b1-4)GlcNAc(b1-6)]Man(a1-6)[Gal(b1-4)GlcNAc(b1-2)Man(a1-3)]Man(b1-4)GlcNAc(b1-4)[Fuc(a1-6)]GlcNAc
In short: as §1

[20] = target: Gal(b1-4)GlcNAc(b1-2)[Gal(b1-4)GlcNAc(b1-6)]Man(a1-6)[GlcNAc(b1-4)][Gal(b1-4)GlcNAc(b1-2)Man(a1-3)]Man(b1-4)GlcNAc(b1-4)GlcNAc
In short: as §1

[21] = target: Gal(b1-4)GlcNAc(b1-2)[Gal(b1-4)GlcNAc(b1-6)]Man(a1-6)[GlcNAc(b1-4)][Gal(b1-4)GlcNAc(b1-2)[Gal(b1-4)GlcNAc(b1-4)]Man(a1-3)]Man(b1-4)GlcNAc(b1-4)[Fuc(a1-6)]GlcNAc
In short: as §1

[22] = target: Gal(b1-4)GlcNAc(b1-3)Gal(b1-3)GalNAc
In short: as §1

[23] = target: Gal(b1-4)GlcNAc(b1-3)Gal(b1-3)GlcNAc
In short: as §1

[24] = target: Gal(b1-4)GlcNAc(b1-3)Gal(b1-4)Glc
In short: as §1

[25] = target: Gal(b1-4)GlcNAc(b1-3)Gal(b1-4)GlcNAc
In short: as §1

[26] = target: Gal(b1-4)GlcNAc(b1-3)Gal(b1-4)GlcNAc(b1-2)Man(a1-3)[Gal(b1-4)GlcNAc(b1-3)Gal(b1-4)GlcNAc(b1-2)Man(a1-6)]Man(b1-4)GlcNAc(b1-4)GlcNAc
In short: as §1

[27] = target: Gal(b1-4)GlcNAc(b1-3)Gal(b1-4)GlcNAc(b1-2)Man(a1-3)[Gal(b1-4)GlcNAc(b1-3)Gal(b1-4)GlcNAc(b1-2)Man(a1-6)]Man(b1-4)GlcNAc(b1-4)[Fuc(a1-6)]GlcNAc
In short: as §1

[28] = target: Gal(b1-4)GlcNAc(b1-3)Gal(b1-4)GlcNAc(b1-2)[Gal(b1-4)GlcNAc(b1-3)Gal(b1-4)GlcNAc(b1-6)]Man(a1-6)[Gal(b1-4)GlcNAc(b1-3)Gal(b1-4)GlcNAc(b1-2)Man(a1-3)]Man(b1-4)GlcNAc(b1-4)GlcNAc
In short: as §1

[29] = target: Gal(b1-4)GlcNAc(b1-3)Gal(b1-4)GlcNAc(b1-2)[Gal(b1-4)GlcNAc(b1-3)Gal(b1-4)GlcNAc(b1-6)]Man(a1-6)[Gal(b1-4)GlcNAc(b1-3)Gal(b1-4)GlcNAc(b1-2)Man(a1-3)]Man(b1-4)GlcNAc(b1-4)[Fuc(a1-6)]GlcNAc
In short: as §1

[30] = target: Gal(b1-4)GlcNAc(b1-3)Gal(b1-4)GlcNAc(b1-3)Gal(b1-4)GlcNAc
In short: as §1

[31] = target: Gal(b1-4)GlcNAc(b1-3)Gal(b1-4)GlcNAc(b1-3)Gal(b1-4)GlcNAc(b1-2)Man(a1-3)[Gal(b1-4)GlcNAc(b1-3)Gal(b1-4)GlcNAc(b1-3)Gal(b1-4)GlcNAc(b1-2)Man(a1-6)]Man(b1-4)GlcNAc(b1-4)GlcNAc
In short: as §1

[32] = target: Gal(b1-4)GlcNAc(b1-3)Gal(b1-4)GlcNAc(b1-3)Gal(b1-4)GlcNAc(b1-2)Man(a1-3)[Gal(b1-4)GlcNAc(b1-3)Gal(b1-4)GlcNAc(b1-3)Gal(b1-4)GlcNAc(b1-2)Man(a1-6)]Man(b1-4)GlcNAc(b1-4)[Fuc(a1-6)]GlcNAc
In short: as §1

[33] = target: Gal(b1-4)GlcNAc(b1-3)Gal(b1-4)GlcNAc(b1-3)Gal(b1-4)GlcNAc(b1-2)[Gal(b1-4)GlcNAc(b1-3)Gal(b1-4)GlcNAc(b1-3)Gal(b1-4)GlcNAc(b1-6)]Man(a1-6)[Gal(b1-4)GlcNAc(b1-3)Gal(b1-4)GlcNAc(b1-3)Gal(b1-4)GlcNAc(b1-2)Man(a1-3)]Man(b1-4)GlcNAc(b1-4)[Fuc(a1-6)]GlcNAc
In short: as §1

B1: SGC, Q9M345 (protein)
chain: QNLNFTYNGFHPPLTDISLQGLATVTPNGLLKLTNTSVQKTGHAFCTERIRFKDSQNGNVSSFSTTFVFAIHSQIPTLSGHGIAFVVAPTLGLPFALPSQYIGLFNISNNGNDTNHIFAVEFDTIQSSEFGDPNDNHVGIDLNGLRSANYSTAGYRDDHDKFQNLSLISRKRIQVWIDYDNRSHRIDVTVAPFDSDKPRKPLVSYVRDLSSILLEDMYVGFSSATGSVLSEHFLVGWSFRLNGEAPMLSLSKLPKLPRFEPRRIS
[1]
  glycan array binding signal (z-score): -0.323
Gal(b1-4)Glc
  glycan array binding signal (z-score): -0.373
Gal(b1-4)Glc6S
  glycan array binding signal (z-score): 0.298
Gal(b1-4)GlcNAc
  glycan array binding signal (z-score): -0.304
[2]
  glycan array binding signal (z-score): -0.393
Gal(b1-4)GlcNAc(b1-2)Man
  glycan array binding signal (z-score): -0.343
[3]
  glycan array binding signal (z-score): -0.336
[4]
  glycan array binding signal (z-score): -0.388
[5]
  glycan array binding signal (z-score): -0.248
[6]
  glycan array binding signal (z-score): 1.31
[7]
  glycan array binding signal (z-score): -0.355
[8]
  glycan array binding signal (z-score): 0.364
[9]
  glycan array binding signal (z-score): 0.193
[10]
  glycan array binding signal (z-score): -0.354
[11]
  glycan array binding signal (z-score): 0.524
[12]
  glycan array binding signal (z-score): 0.124
[13]
  glycan array binding signal (z-score): 1.5
[14]
  glycan array binding signal (z-score): -0.278
[15]
  glycan array binding signal (z-score): -0.335
[16]
  glycan array binding signal (z-score): -0.227
[17]
  glycan array binding signal (z-score): 2.19
[18]
  glycan array binding signal (z-score): 0.471
[19]
  glycan array binding signal (z-score): -0.192
[20]
  glycan array binding signal (z-score): -0.282
[21]
  glycan array binding signal (z-score): -0.386
[22]
  glycan array binding signal (z-score): -0.3
[23]
  glycan array binding signal (z-score): -0.295
[24]
  glycan array binding signal (z-score): -0.237
[25]
  glycan array binding signal (z-score): -0.296
[26]
  glycan array binding signal (z-score): 1.68
[27]
  glycan array binding signal (z-score): 4.81
[28]
  glycan array binding signal (z-score): 2.24
[29]
  glycan array binding signal (z-score): 0.334
[30]
  glycan array binding signal (z-score): 0.343
[31]
  glycan array binding signal (z-score): 3.58
[32]
  glycan array binding signal (z-score): 2.91
[33]
  glycan array binding signal (z-score): 1.28
